Data reported in PMC4336329 (PLoS ONE, 2015).
Among all 310,000 compounds or so, about 14,000 (4.5%) showed an effect of 50% or more. Effects have a minus sign here. The list shows a part of the results.

target: human ether-à-go-go-related gene (hERG) potassium channel (human, UniProt Q12809); test: primary screen, population patch clamp on CHO cells stably expressing hERG
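Also: peak tail current of the secondary pulse compared with the same well before compound.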

Chain of human ether-à-go-go-related gene (hERG) potassium channel (Q12809 whole entry, looked up): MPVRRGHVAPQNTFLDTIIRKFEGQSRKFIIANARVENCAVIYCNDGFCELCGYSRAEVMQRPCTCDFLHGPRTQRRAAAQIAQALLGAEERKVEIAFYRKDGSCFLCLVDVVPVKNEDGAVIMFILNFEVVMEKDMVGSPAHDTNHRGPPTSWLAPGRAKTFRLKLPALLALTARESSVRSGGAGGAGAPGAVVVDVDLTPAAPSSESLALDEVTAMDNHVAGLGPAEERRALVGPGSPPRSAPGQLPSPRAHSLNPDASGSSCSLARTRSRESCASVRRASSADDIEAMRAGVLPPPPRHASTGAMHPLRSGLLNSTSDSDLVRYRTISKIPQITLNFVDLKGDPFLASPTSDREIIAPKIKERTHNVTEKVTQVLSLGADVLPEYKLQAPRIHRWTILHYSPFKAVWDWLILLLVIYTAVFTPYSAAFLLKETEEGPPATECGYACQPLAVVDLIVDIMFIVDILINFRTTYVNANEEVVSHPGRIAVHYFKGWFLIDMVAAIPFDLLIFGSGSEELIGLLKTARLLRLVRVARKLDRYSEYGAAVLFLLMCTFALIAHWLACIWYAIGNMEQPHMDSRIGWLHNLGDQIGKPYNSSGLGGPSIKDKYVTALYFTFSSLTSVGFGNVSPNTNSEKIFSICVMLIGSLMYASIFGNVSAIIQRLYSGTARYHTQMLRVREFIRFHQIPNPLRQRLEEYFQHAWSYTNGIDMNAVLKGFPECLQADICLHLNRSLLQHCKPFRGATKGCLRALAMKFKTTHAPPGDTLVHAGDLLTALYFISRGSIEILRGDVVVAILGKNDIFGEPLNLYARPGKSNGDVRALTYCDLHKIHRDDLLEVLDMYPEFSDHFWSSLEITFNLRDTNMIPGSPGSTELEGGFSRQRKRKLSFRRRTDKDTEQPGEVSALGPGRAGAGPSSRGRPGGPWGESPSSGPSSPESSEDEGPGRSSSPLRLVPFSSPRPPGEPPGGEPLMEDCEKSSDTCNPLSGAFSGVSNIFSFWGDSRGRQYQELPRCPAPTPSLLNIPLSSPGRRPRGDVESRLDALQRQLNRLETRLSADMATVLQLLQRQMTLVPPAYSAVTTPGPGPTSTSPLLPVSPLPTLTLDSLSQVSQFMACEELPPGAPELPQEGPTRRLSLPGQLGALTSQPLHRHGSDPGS

| Compound | hERG current change (%, negative = inhibition) at 10uM [%] |
| --- | --- |
| COc1ccc(C(=O)CCC(=O)Nc2cccnc2)c(OC)c1 | 7.08 |
| COC(=O)C1=C(C)N(C)C(=S)NC1c1ccccc1 (stereo not drawn) | -7 |
| CCNc1nc(NC(C)CC)nc(Oc2ccc(OCC)nn2)n1 (stereo not drawn) | -8.07 |
| COC(=O)c1ccccc1NC(=O)c1cc2ccccc2o1 | 22.1 |
| CN1CCN(C(=O)CN(Cc2ccc(Cl)cc2)S(C)(=O)=O)CC1 | -6.56 |
| Cc1nnc(-c2ccccc2)c[n+]1[O-] | 12.2 |
| COC(=O)c1sccc1NC(=O)Nc1ccc(F)cc1 | 9.98 |
| CCN1CCN(Cc2ccc(NC(=O)c3cc(NC(=O)C4=NN(c5ccccc5)C(=O)C4)cc(OC)c3)cc2C(F)(F)F)CC1 | 5.18 |
| O=C(c1cc([N+](=O)[O-])ccc1Cl)N1CCN(c2ccc([N+](=O)[O-])cc2)CC1 | -73.6 |
| O=C1Nc2ccccc2C12OCCS2 (stereo not drawn) | 9.86 |
| O=C(CN1CCN(Cc2ccc(F)cc2Cl)C1=O)NCCc1ccccc1 | -18 |
| O=C(CSc1ncnc2nc[nH]c12)N1CCOCC1 | 3.67 |
| O=C(CCCCCNC(=O)N1CCn2c1nc1ccccc12)NCc1ccc(F)cc1 | -0.879 |
| COc1ccc(/C=N/NC(=O)c2ccccc2OCc2ccccc2)c(OC)c1 | -53.8 |
| COc1ccc2nc(SCC(=O)NC3CCCc4ccccc43)[nH]c2c1 (stereo not drawn) | 0.444 |
| N#Cc1nc(-c2ccc(F)cc2)oc1N1CCC(C(N)=O)CC1 | -32.1 |
| Fc1ccc(NC(=S)NC2CC3CCC(C2)N3Cc2ccco2)cc1 (stereo not drawn) | -12.6 |
| Cc1ccccc1NC(=O)C(C)OC(=O)CNS(=O)(=O)c1ccc(C#N)cc1 (stereo not drawn) | -4.3 |
| COc1ccc(S(=O)(=O)N2CCC(C(=O)NCCC(=O)Nc3nccs3)CC2)cc1 | 13.3 |
| CCCN(C(=O)c1nc2nccc(C)n2n1)c1c(N)n(Cc2ccccc2)c(=O)[nH]c1=O | 8.27 |
| CCCN(CCC)C(=O)CC(c1ccccc1)c1ccc(C)cc1O (stereo not drawn) | -11 |
| CCOC(=O)C(CC)Sc1nc2c(cnn2-c2ccc(F)cc2)c(=O)[nH]1 (stereo not drawn) | 20.7 |
| O=C(NC1CC2CCCC(C1)N2C(=O)NC1CCCCC1)c1ccc(F)cc1 (stereo not drawn) | 4.98 |

| Compound | hERG current change (%, negative = inhibition) at 10uM [%] |
| --- | --- |
| CCOc1ccc2c(c1)sc1nc(C(=O)OC)cc(=O)n12 | -12.9 |
| Cc1cccc(Cn2c(SCCO)nc3c2c(=O)n(C)c(=O)n3C)c1 | -22.9 |
| CCOc1ccc(S(=O)(=O)NCCC(=O)OC(C)C(=O)N2CCc3ccccc32)cc1 (stereo not drawn) | -22.6 |
| CN(C)S(=O)(=O)c1cc(NC(=O)c2ccc(-n3ccnc3)c([N+](=O)[O-])c2)ccc1Cl | -16.3 |
| Cn1[nH]c(C(F)(F)F)cc1=O | 7.42 |
| COc1ccc(CN2CCN(Cc3ccco3)CC2)cc1.O=C(O)C(=O)O | -4.45 |
| CCCCn1c(O)c(C(C)=NCc2cc(OC)cc(OC)c2)c(=O)[nH]c1=O | -49.8 |
| COc1ccc(C(=O)N=c2sc3ccccc3n2C)cc1 | 12.5 |
| Cc1ccc(NS(=O)(=O)c2c(C)[nH]c(C)c2C(=O)N2CCCCC2)c(C)c1 | 7.76 |
| COC(=O)c1sc(-c2ccc(Cl)cc2)cc1NC(=O)CSCC(=O)O | 12.1 |
| CCCCN(C(=O)CSCC(=O)Nc1ccc(C)cc1)c1c(N)n(CC(C)C)c(=O)[nH]c1=O | 6.29 |
| Cc1ccc(SC(c2ccc(C)cc2)C(Cn2cncn2)C(=O)c2ccccc2)cc1 (stereo not drawn) | 2.98 |
| CCOC(=O)c1cnc2c(c(C)nn2C)c1Oc1ccc(OC)cc1 | -1.99 |
| COc1cc(C(C[N+](=O)[O-])c2c(C)[nH]c3ccccc23)cc(OC)c1OC (stereo not drawn) | 23.9 |
| Cc1ccc(C)c(OCCC(=O)OCC(=O)c2c(N)n(C)c(=O)n(C)c2=O)c1 | -55.5 |
| COc1ccc2cc3cc(C(=O)NCCN4CCc5ccccc5C4)oc3nc2c1 | -63.3 |
| CCOc1ccc(C2NC(=S)NC3=C2CCc2ccccc23)cc1 (stereo not drawn) | -45.6 |
| COc1ccccc1N1CCN(C(C)C(=O)N2CC(C)OC(C)C2)CC1.O=C(O)C(=O)O (stereo not drawn) | 13.4 |
| COC(=O)CSC1=NP(=S)(SCC(=O)OC)N2CCCC2=C1C#N (stereo not drawn) | -12.4 |
| CC(=O)Nc1ccc(NC(=O)COc2ccc(-c3ccccc3)cc2)cc1 | 9.64 |
| CCC1CN(C(=O)N2CCC(C(=O)NCc3ccc(OC)cc3OC)CC2)c2ccccc2O1 (stereo not drawn) | -2.32 |
| CC1=C(C(=O)Nc2cccc(C(=O)NC(C)c3ccccc3)c2)SCCO1 (stereo not drawn) | 8.58 |
| Cc1ccc(CNc2ccc(N3C(=O)CCCC3=O)cc2[N+](=O)[O-])cc1 | -5.27 |

| Compound | hERG current change (%, negative = inhibition) at 10uM [%] |
| --- | --- |
| O=Cc1ccc2cccnc2n1 | 6.3 |
| Cc1nnc2n(Cc3ccccc3)c(=O)c3c4c(sc3n12)COC(C(C)C)C4 (stereo not drawn) | -4.44 |
| O=C(CSc1nnc(CNC(=O)c2cccs2)o1)Nc1cccc(Cl)c1 | -7.94 |
| COCCn1nnnc1C(c1ccc(OC)cc1)N1CCC(C)CC1 (stereo not drawn) | 12 |
| CN(CC(=O)Nc1ccc(F)c(F)c1F)C(=O)C1CCC1 | 9.13 |
| CCN(CC)CC(C)OC(=O)c1cc(OC)c(OC)c(OC)c1.Cl (stereo not drawn) | -11.5 |
| C[n+]1ccccc1Nc1cc([N+](=O)[O-])ccc1N.[I-] | 2.5 |
| COc1ccc2c(c1)CCCC2NS(=O)(=O)OCC(Cl)(Cl)Cl (stereo not drawn) | 8.39 |
| O=C(N/N=C/c1cc(Br)ccc1O)c1ccncc1 | 5.92 |
| CCN(CC)c1ccc(N2C(=NC(=O)C3CC3)SC3CS(=O)(=O)CC32)cc1 (stereo not drawn) | 5.74 |
| CCOC(=O)C1CCN(Cc2ccc(O)c(OC)c2)CC1 | -13.7 |
| CC(C)C(=O)Nc1ccc(C(=O)NNC(=O)CCCOc2ccc(Cl)cc2Cl)cc1 | 24.1 |
| CCCCNC(=S)NNC(=O)c1csc(C)c1 | -7.71 |
| CN(C(=O)c1cc2n(n1)C(C(F)(F)F)CC(c1ccco1)N2)c1ccc(OC(F)(F)F)cc1 (stereo not drawn) | 0.998 |
| Cc1cc(C)c(NC(=O)CSc2nc(=O)n(CCN3CCOCC3)c3c2CCC3)c(C)c1 | -34.6 |
| Cc1ccc(OCCNC(=O)c2ccco2)cc1C | 7.8 |
| Cc1cc(OC(=O)c2ccccc2Br)cc(=O)n1C | -17.5 |
| Cc1cc(=O)[nH]c(N/N=C/c2cccs2)n1 | -3.8 |
| COC(=O)c1cc(Br)c(=O)n(Cc2ccncc2)c1 | -1.41 |
| Cl.NC(Cc1ccccc1)Cc1ccccc1 | -2.85 |
| CCOC(=O)Cn1c(=O)oc2ccc(C)cc21 | 1.49 |
| Cc1csc(=O)n1CCC(=O)OCC(=O)NCc1ccc(Cl)cc1Cl | 0.351 |
| Cc1ccc2cc(CN(CCCN(C)C)C(=O)NCc3ccccc3)c(=O)[nH]c2c1C | -34.1 |

| Compound | hERG current change (%, negative = inhibition) at 10uM [%] |
| --- | --- |
| CCOC(=O)c1c(S(=O)(=O)NCCc2cccs2)c(C)n(C)c1C | -6.23 |
| Nc1ccccc1SCc1ccccc1Cl | 2.35 |
| N#C/C(=C(/O)CSc1ccccn1)c1nc2ccccc2s1 | 11.8 |
| O=C(NC(=S)Nc1ccccc1[N+](=O)[O-])c1ccco1 | 2.35 |
| CC(=O)Nc1ccc(NC(=O)C(C)OC(=O)CCCOc2ccc(Cl)cc2C)cc1 (stereo not drawn) | 14.7 |
| O=C(c1ccc([N+](=O)[O-])s1)N1CCN(c2ccccn2)CC1 | -20.4 |
| Cc1ccc(CSc2nc3ccccc3c(=O)n2C)cc1 | 28.6 |
| Cc1nn(-c2ccccc2)c(Cl)c1C(=O)NNC(=O)c1ccccc1O | -2.09 |
| COc1cc(/C=C/C(=O)OCC(=O)N2CCCCCC2)ccc1OCC#N | -10.6 |
| Fc1ccc(N2N=C(c3cccs3)CC2c2ccco2)c(F)c1 (stereo not drawn) | -3.53 |
| CC(=O)c1cc2c(cc1NC(=O)c1cccc(S(=O)(=O)N3CCN(C)CC3)c1)OCO2 | 5.02 |
| CCOc1cccc(NC(=O)/C(C#N)=C\c2cn(CC(=O)O)c3ccccc23)c1 | 7.55 |
| C[n+]1cccc(CNC(=O)/C=N/O)c1.[I-] | 17 |
| C=CCNc1nc(N)c([N+](=O)[O-])c(NC2CCCCC2)n1 | 9.84 |
| O=C(COC(=O)C1CC2CCCC(C1)C2=O)NC(=O)c1ccccc1 (stereo not drawn) | 1.03 |
| Cc1cccc2c1cnn2C(=O)Nc1ccccc1Br | 22.4 |
| CC(C)CC(=O)NC(=S)Nc1ccccc1N1CCCC1 | -2.16 |
| O=C(COc1ccc2ccccc2c1)Nc1nc2ccccc2[nH]1 | -3.95 |
| CSCCC(NC(=O)c1ccccc1)C(=O)OCC(=O)Nc1ccc(C)c(Cl)c1 (stereo not drawn) | -8.55 |
| Cn1c(=O)c2c(nc(NCCNC(=O)c3ccco3)n2Cc2ccccc2Cl)n(C)c1=O | 14 |
| Cn1ccnc1C(O)c1ccc(OCc2ccccc2)cc1 (stereo not drawn) | 4.19 |
